Experimental data: a collection of fitness landscapes (doi:10.1126/science.1257360)
Some of the results follow.

B1: PhoQ; a variant is named by its letters at X, in order, P23837 (parent)
chain: MKKLLRLFFPLSLRVRFLLATAAVVLVLSLAYGMVALIGYSVSFDKTTFRLLRGESNLFYTLAKWENNKLHVELPENIDKQSPTMTLIYDENGQLLWAQRDVPWLMKMIQPDWLKSNGFHEIEADVNDTSLLLSGDHSIQQQLQEVREDDDDAEMTHSVAVNVYPATSRMPKLTIVVVDTIPVELKSSYMVWSWFIYVLSANLLLVIPLLWVAAWWSLRPIEALAKEVRELEEHNRELLNPATTRELTSLVRNLNRLLKSERERYDKYRTTLTDLTHSLKTPLXXLQXXLRSLRSEKMSVSDAEPVMLEQISRISQQIGYYLHRASMRGGTLLSRELHPVAPLLDNLTSALNKVYQRKGVNISLDISPEISFVGEQNDFVEVMGNVLDNACKYCLEFVEISARQTDEHLYIVVEDDGPGIPLSKREVIFDRGQRVDTLRPGQGVGLAVAREITEQYEGKIVAGESMLGGARMEVIFGRQHSAPKDE

Variants of: B1
Assay: enrichment ratio after two sorts for PhoP signalling (ratio (wild type AVST 3.29)); higher = more functional
Settings: with PhoP (E. coli)

Row | Variant | enrichment ratio
1 | VVKF | ≤ 0.25
2 | MICT | ≤ 0.25
3 | TFYM | 0.392
4 | DRKT | ≤ 0.25
5 | ELCD | ≤ 0.25
6 | SCGC | 2.41
7 | QSCW | ≤ 0.25
8 | FKQC | ≤ 0.25
9 | ENMS | ≤ 0.25
10 | RNLM | ≤ 0.25
11 | FTHT | ≤ 0.25
12 | YNHP | ≤ 0.25
13 | YKHA | ≤ 0.25
14 | RYMP | ≤ 0.25
15 | DVLH | ≤ 0.25
16 | GFNF | ≤ 0.25
17 | HKGM | ≤ 0.25
18 | KVQL | ≤ 0.25
19 | RDQY | ≤ 0.25
20 | PSCR | ≤ 0.25
21 | EWFS | ≤ 0.25
22 | KANI | ≤ 0.25
23 | LMVE | ≤ 0.25
24 | PIGF | ≤ 0.25

Row | Variant | enrichment ratio
25 | RFHY | ≤ 0.25
26 | SNVN | 13.3
27 | DLWD | ≤ 0.25
28 | KKRE | ≤ 0.25
29 | NHNE | ≤ 0.25
30 | ILVV | ≤ 0.25
31 | PNAQ | ≤ 0.25
32 | DTER | ≤ 0.25
33 | MMKP | ≤ 0.25
34 | MEWG | ≤ 0.25
35 | TQHS | 2.15
36 | RDAC | ≤ 0.25
37 | LNEA | ≤ 0.25
38 | GENE | ≤ 0.25
39 | TEHY | 11.4
40 | MRHS | ≤ 0.25
41 | FKAH | ≤ 0.25
42 | YWTD | ≤ 0.25
43 | YLKH | ≤ 0.25
44 | DQPA | ≤ 0.25
45 | TTSQ | 16.8
46 | SFWN | ≤ 0.25
47 | YTWT | ≤ 0.25
48 | VMWE | ≤ 0.25

Row | Variant | enrichment ratio
49 | KKTC | ≤ 0.25
50 | LGLR | ≤ 0.25
51 | GQIM | 4.29
52 | FDGG | ≤ 0.25
53 | AGDW | ≤ 0.25
54 | NWTA | ≤ 0.25
55 | SMTL | 5.9
56 | ARAP | ≤ 0.25
57 | WTIS | ≤ 0.25
58 | GFNC | ≤ 0.25
59 | NRWS | ≤ 0.25
60 | RRYE | ≤ 0.25
61 | YQES | ≤ 0.25
62 | LMGD | ≤ 0.25
63 | PMGH | ≤ 0.25
64 | ASKD | ≤ 0.25
65 | YTVR | ≤ 0.25
66 | TSAM | 13.8
67 | QRMN | ≤ 0.25
68 | AWQF | ≤ 0.25
69 | LCIM | ≤ 0.25
70 | MSTP | ≤ 0.25
71 | GRQP | ≤ 0.25
72 | NEKD | ≤ 0.25

Row | Variant | enrichment ratio
73 | VTQH | 0.76
74 | YWKS | ≤ 0.25
75 | YTHS | ≤ 0.25
76 | HFEF | ≤ 0.25
77 | GGVF | ≤ 0.25
78 | KTGS | ≤ 0.25
79 | SNEM | ≤ 0.25
80 | WHYK | ≤ 0.25
81 | MYDN | ≤ 0.25
82 | QTDN | 2.21
83 | VNFD | 0.628
84 | FGFD | ≤ 0.25
85 | HYNG | ≤ 0.25
86 | KVQY | ≤ 0.25
87 | TSTC | 17.2
88 | VCFH | ≤ 0.25
89 | YSGN | ≤ 0.25
90 | DAHT | ≤ 0.25
91 | ISKP | ≤ 0.25
92 | PKWF | ≤ 0.25
93 | GPSM | ≤ 0.25
94 | RGSE | ≤ 0.25
95 | LDRI | ≤ 0.25
96 | FMWQ | ≤ 0.25

Row | Variant | enrichment ratio
97 | DGGA | ≤ 0.25
98 | AYNP | ≤ 0.25
99 | MLHR | ≤ 0.25
100 | LNNK | ≤ 0.25
101 | EFIH | ≤ 0.25
102 | RDKG | ≤ 0.25
103 | IVSV | ≤ 0.25
104 | DELE | ≤ 0.25
105 | HKLD | ≤ 0.25
106 | QQLD | ≤ 0.25
107 | IRIC | ≤ 0.25
108 | MSYR | ≤ 0.25
109 | TYKT | ≤ 0.25
110 | YIFI | ≤ 0.25
111 | YSQP | ≤ 0.25
112 | NPIY | ≤ 0.25
113 | VTTI | 2.22
114 | EMPG | ≤ 0.25
115 | YANI | ≤ 0.25
116 | DPYV | 2.59
117 | DYNH | ≤ 0.25
118 | ATDC | ≤ 0.25
119 | PNCF | ≤ 0.25
120 | VDRA | ≤ 0.25

Row | Variant | enrichment ratio
121 | NSKI | ≤ 0.25
122 | DYSY | ≤ 0.25
123 | PKSV | ≤ 0.25
124 | TDKN | ≤ 0.25
125 | VGAC | 0.664
126 | PTFM | ≤ 0.25
127 | MFIL | ≤ 0.25
128 | MFYA | ≤ 0.25
129 | RICP | ≤ 0.25
130 | ETIL | ≤ 0.25
131 | MAIM | ≤ 0.25
132 | WLCC | ≤ 0.25
133 | HSDG | ≤ 0.25
134 | IKAW | ≤ 0.25
135 | TNCE | ≤ 0.25
136 | DDAW | ≤ 0.25
137 | RVMP | ≤ 0.25
138 | LNAC | ≤ 0.25
139 | GHPC | ≤ 0.25
140 | NCYK | ≤ 0.25
141 | SRTR | ≤ 0.25
142 | ASMF | 5.95
143 | FCIC | ≤ 0.25
144 | DKCR | ≤ 0.25

Row | Variant | enrichment ratio
145 | VLQI | ≤ 0.25
146 | VLKC | ≤ 0.25
147 | VKAY | 0.987
148 | AHAY | 1.08
149 | HNTK | ≤ 0.25
150 | VNGG | ≤ 0.25
151 | SFDL | ≤ 0.25
152 | GHQI | ≤ 0.25
153 | LNQR | ≤ 0.25
154 | RGSP | ≤ 0.25
155 | VQKP | ≤ 0.25
156 | SCQL | 9.36
157 | GVCS | 5.96
158 | TGKH | ≤ 0.25
159 | GRTV | ≤ 0.25
160 | DCVE | ≤ 0.25
161 | GFLV | ≤ 0.25
162 | KSRK | ≤ 0.25
163 | TPAA | ≤ 0.25
164 | MKNI | ≤ 0.25
165 | LWKD | ≤ 0.25
166 | HIPM | ≤ 0.25
167 | FAPN | ≤ 0.25
168 | VQIS | ≤ 0.25

Row | Variant | enrichment ratio
169 | QACG | ≤ 0.25
170 | SNYC | ≤ 0.25
171 | SPFY | ≤ 0.25
172 | WRSM | ≤ 0.25
173 | NDPA | ≤ 0.25
174 | VGGI | 0.91
175 | ATGD | ≤ 0.25
176 | DHFK | ≤ 0.25
177 | HDNL | ≤ 0.25
178 | INHG | ≤ 0.25
179 | PECG | ≤ 0.25
180 | PRYL | ≤ 0.25
181 | FQDS | ≤ 0.25
182 | MHKN | ≤ 0.25
183 | WNPF | ≤ 0.25
184 | FKKT | ≤ 0.25
185 | YCGG | ≤ 0.25
186 | THLH | 5.97
187 | CIKP | ≤ 0.25
188 | VARP | ≤ 0.25
189 | DWTY | ≤ 0.25
190 | GSCS | 5.76
191 | IACH | ≤ 0.25
192 | SKWC | ≤ 0.25

Row | Variant | enrichment ratio
193 | GMRY | ≤ 0.25
194 | TRGF | ≤ 0.25
195 | GRRY | ≤ 0.25
196 | KVPK | ≤ 0.25
197 | RFDI | ≤ 0.25
198 | QKGK | ≤ 0.25
199 | PKYK | ≤ 0.25
200 | FQIG | ≤ 0.25
201 | PWSW | ≤ 0.25
202 | VHII | ≤ 0.25
203 | IDGH | ≤ 0.25
204 | QCNY | 4.56
205 | MSNH | ≤ 0.25
206 | IEDW | ≤ 0.25
207 | PCTM | ≤ 0.25
208 | PMHS | ≤ 0.25
209 | LFDL | ≤ 0.25
210 | LEVH | 1.93
211 | ERCC | ≤ 0.25
212 | YIRE | ≤ 0.25
213 | QGPI | ≤ 0.25
214 | EHWI | ≤ 0.25
215 | ATAQ | 8.57
216 | HPWP | ≤ 0.25

Row | Variant | enrichment ratio
217 | HHSD | ≤ 0.25
218 | NVKA | ≤ 0.25
219 | MYAQ | ≤ 0.25
220 | SWPY | ≤ 0.25
221 | EKPG | ≤ 0.25
222 | NDHQ | ≤ 0.25
223 | VRDV | ≤ 0.25
224 | NGDR | ≤ 0.25
225 | TADR | ≤ 0.25
226 | PIAF | ≤ 0.25
227 | NETN | ≤ 0.25
228 | STRC | ≤ 0.25
229 | VHWG | ≤ 0.25
230 | AICL | 17.5
231 | EMFR | ≤ 0.25
232 | ICMP | ≤ 0.25
233 | RMKW | ≤ 0.25
234 | LLVT | ≤ 0.25
235 | QAQI | ≤ 0.25
236 | NFVG | ≤ 0.25
237 | TYGQ | ≤ 0.25
238 | PWRT | ≤ 0.25
239 | MDCD | ≤ 0.25
240 | KLFC | ≤ 0.25

Row | Variant | enrichment ratio
241 | WGPQ | ≤ 0.25
242 | NHDT | ≤ 0.25
243 | RHDM | ≤ 0.25
244 | PHQR | ≤ 0.25
245 | PCLF | ≤ 0.25
246 | LHLR | ≤ 0.25
247 | YCRQ | ≤ 0.25
248 | SLNS | ≤ 0.25
249 | MSCH | 4.92
250 | DHPS | ≤ 0.25
251 | KFEF | ≤ 0.25
252 | PTFQ | ≤ 0.25
253 | APAR | ≤ 0.25
254 | DCFS | ≤ 0.25
255 | YNTN | ≤ 0.25
256 | PNVK | 2.33
257 | KFIQ | ≤ 0.25
258 | ADDR | ≤ 0.25
259 | NHHG | ≤ 0.25
260 | EIVI | ≤ 0.25
261 | FDQG | ≤ 0.25
262 | TSMY | 12.3
263 | KCLD | ≤ 0.25
264 | YRLS | ≤ 0.25

Row | Variant | enrichment ratio
265 | IMRI | ≤ 0.25
266 | LKRR | ≤ 0.25
267 | SEMF | 20.6
268 | KDNY | ≤ 0.25
269 | VPMC | ≤ 0.25
270 | EAQQ | ≤ 0.25
271 | RMTH | ≤ 0.25
272 | EQDV | ≤ 0.25
273 | AAPC | 0.676
274 | LIKT | ≤ 0.25
275 | DFSN | ≤ 0.25
276 | YLHM | ≤ 0.25
277 | ITMH | ≤ 0.25
278 | EQCI | ≤ 0.25
279 | VIQH | ≤ 0.25
280 | YDYK | ≤ 0.25
281 | TVLS | 2.02
282 | KQHK | ≤ 0.25
283 | FWIS | ≤ 0.25
284 | LTPP | ≤ 0.25
285 | GEMR | ≤ 0.25
286 | QPNP | ≤ 0.25
287 | IGSS | ≤ 0.25
288 | AMKS | ≤ 0.25

Row | Variant | enrichment ratio
289 | MGMS | ≤ 0.25
290 | TTKE | ≤ 0.25
291 | CQNV | ≤ 0.25
292 | LSTK | ≤ 0.25
293 | DSCL | ≤ 0.25
294 | QFHW | ≤ 0.25
295 | HKLF | ≤ 0.25
296 | NRKL | ≤ 0.25
297 | TKSN | 1.74
298 | FWLI | ≤ 0.25
299 | VGGS | ≤ 0.25
300 | KVWD | ≤ 0.25
301 | RGCS | 0.323
302 | RIHN | ≤ 0.25
303 | YSYM | ≤ 0.25
304 | IHLK | ≤ 0.25
305 | HGSY | ≤ 0.25
306 | IHSY | ≤ 0.25
